The values below come from patent US20240122985A1, “ANTIBODIES, COMBINATIONS COMPRISING ANTIBODIES, BIOMARKERS, USES & METHODS” (KYMAB LIMITED, priority 2016, published 2024).

Series [1] is described as follows: Expression in stable Lonza pools (shake flask fed batch overgrow). The following applies: 4 separate stable pools, shake flasks. An excerpt: In order to produce the gram amounts required for toxicology studies, 10A7 and 2D10 OX40L antibodies were transferred to the Lonza GS Xceed system for stable expression. The HC and LC for each antibody was first codon optimised for expression in CHO cells by Genewiz. The HC cassette (containing the optimised IgG4PE constant region) was then cloned into Lonza's pXC18.4 vector and LC cassette (containing the optimised kappa constant region) cloned into Lonza's pXC17.4 vector using standard restriction enzyme digestion and ligation. A double gene vector (DGV) encoding both the HC and LC sequences was then created by restriction enzyme digestion and ligation and sequence confirmed before expression.
Stable pools were generated using Lonza's proprietary methods and media. 4 pools were created per antibody and left to recover over a period of 10-15 days. After the cells had recovered, pre-seed stocks (PSS) of cells were frozen down for later recovery and creation of MCB. Small scale (50 mL) shake flask fed batch overgrows were then set up using Lonza's proprietary media. Cells were left to overgrow for a period of 14 days. During this period cells were monitored for growth, viability and glucose levels. Cells were supplemented accordingly with Lonza's proprietary feed and 400 g/L glucose. Samples were also taken throughout the process for crude sample quantification. […]

The test system of series [2] is Rhesus macaque model of haploidentical hematopoietic stem cell transplantation. Nature of the series: survival in Rhesus macaque haploidentical HSCT (GVHD) model. The following applies: rhesus monkey recipients of haploidentical half-sibling HSCT; post-transplant prophylactic therapy; FIG. 7A.
Series [3] deals with CD4^+ Tscm and T naïve cells. Nature of the series: flow cytometry of T-cell subsets (Tscm, naïve, central memory) after allogeneic HCT. The following applies: absolute numbers, treated versus control animal; FIG. 4. It is filed as in vivo, Rhesus macaque. From the text:
FIG. 3: Expansion of Tscm cells following allogeneic HCT. Plots are gated on CD4^+CD45RA^+CCR7^+ T-cells.
Absolute numbers of peripheral blood CD4^+ Tscm (left) and T naïve (right) following allogeneic HCT in control animal and 2D10 IgG4-PE treated animals.
FIG. 6A: Effects of OX40L blockade on SCM CD4^+ T-cells. Datapoints for 02D10 Ig4PE are shown by circles (●), rapamycin by filled squares (▪) and tacrolimus plus methotrexate (Tac/MTX) by open squares (0).
FIG. 6B: Effects of OX40L blockade on SCM CD8^+ T-cells. Datapoints for 02D10 Ig4PE are shown by circles (●), rapamycin by filled squares (▪) and Tac/MTX by unfilled squares (0). […]
In another embodiment, the naïve population is measured by evaluating the relative proportion of specific T-cell phenotypes using flow cytometry where cell subsets are identified by labelling with fluorescent antibody probes and whereby naïve CD4^+ or CD8^+ T-cells are labelled CD4^+/CD28^+/CD95^− or CD8^+/CD28^+/CD95^−, respectively, central memory CD4^+ or CD8^+ T-cells are labelled CD4^+/CD28^+/CD95^+ or CD8^+/CD28^+/CD95^+, respectively, and effector memory CD4^+ or CD8^+ T-cells are labelled CD4^+/CD28^−/CD95^+ or CD8^+/CD28^−/CD95^+, respectively. • 103.
(In general: A flow cytometer gives signals particle by particle.)

Series [4] concerns CD3 primed primary human T lymphocytes. Description: Effect on CD3 primed primary human T lymphocytes (IFN-γ release, agonism). It is filed as cell-based. The following applies: IgG4PE format, 10 μg/mL, 5 days, four independent donors. On the procedure:
In order to determine whether anti-OX40L had the ability to induce T-cell responses in the absence of OX40L, the assay below was performed using method adapted from Wang et al., Hybridoma (Larchmt)., 2009 Aug.; 28(4):269-76, in which an agonist anti-OX40L antibody was described.
A mouse anti-human CD3 antibody (Becton Dickinson) was diluted to 0.5 μg/mL in sterile PBS and 50 μL/well added to a 96 well high binding sterile plate and incubated overnight at 4° C.
T-cells (CD3 positive) were isolated from PBMC derived from leukoreduction system chambers (NHSBT) as described in Example 3. Following isolation, the cells were added to wells in 100 μL to achieve a final concentration of 1×10^5 cells/well.
Test antibodies were diluted in RPMI+10% FBS and 50 μL or 100 μL/well added to cell plate to achieve a final assay concentration of 10 μg/mL. In some cases, a mouse anti-human CD28 antibody (Becton Dickinson) was also added to wells at a final concentration of 1 μg/ml
The assay was incubated for 5 days. After 5 days, harvest supernatants and IFN-γ levels in supernatant were determined as described in Example 5.

Series [5] relates to allogeneic PBMC/T-cell MLR. Nature of the series: Allogeneic PBMC mixed lymphocyte reaction (IFN-γ release). It is filed as cell-based, human. The following applies: one experiment. On the procedure: PBMCs are isolated from leukoreduction system chambers (NHSBT) using Ficoll-Paque plus (GE Healthcare) density gradient centrifugation. PBMC are pre-incubated with mitomycin C (Sigma) at 10 μg/mL in PBS for one hour at 37° C. Cells are then washed 3 times in PBS centrifuging at 300×g for 3 minutes, aspirating the supernatant after each wash. Allogeneic PBMC (not treated with mitomycin C) are added to a 96-well plate in RPMI supplemented with 10% v/v FBS at a concentration of 2×10^6/ml, 50 μL/well. Anti-OX40L antibodies are diluted in culture media and added to 96 well plate containing PBMC (not mitomycin C treated) at 50 μL/well. […] After five days TNF-α, IFN-γ, and IL-2 are measured by duoset ELISA (R&D Systems) according to manufacturer's recommendations. Proliferation is measured by CFSE dilution according to manufacturer's recommendations.
PBMCs were isolated from leukoreduction system chambers (NHSBT) using Ficoll-Paque plus (GE Healthcare) density gradient centrifugation. […] After five days, IFN-γ was measured by duoset ELISA (R&D Systems) according to manufacturer's recommendations.
From four experiments performed, one experiment was a technical failure, defined as no MLR response (IFN-γ release) detected between allogeneic donors. […]

B1: 2D10: anti-hOX40L antibody; VH SEQ ID No:34, VL SEQ ID No:48; IgG4-PE heavy chain SEQ ID No:62, light chain SEQ ID No:64 (antibody)
heavy: EVQLVESGGGLVQPGGSLRLSCAASGFTFSNYAMNWVRQAPGKGLEWVSTISGSGGATRYADSVKGRFTISRDNSRNTVYLQMNSLRVEDTAVFYCTKDRLIMATVRGPYYYGMDVWGQGTTVTVSSASTKGPSVFPLAPCSRSTSESTAALGCLVKDYFPEPVTVSWNSGALTSGVHTFPAVLQSSGLYSLSSVVTVPSSSLGTKTYTCNVDHKPSNTKVDKRV[human IgG4 Fc with changes omitted here]
light: DIQMTQSPSSLSASVGDRVTITCRASQSISSYLNWYQQKPGKAPNLLIYAASSLQSGVPSRFSGSGSETDFTLTISSLQPEDFATYYCQQSHSVSFTFGPGTKVDIKRTVAAPSVFIFPPSDEQLKSGTASVVCLLNNFYPREAKVQWKVDNALQSGNSQESVTEQDSKDSTYSLSSTLTLSKADYEKHKVYACEVTHQGLSSPVTKSFNRGEC
modifications: 02D10 - Heavy Chain Amino Acid Sequence; 02D10 - Light Chain Amino Acid Sequence
For the molecule B1, the “Expression titres in stable Lonza pools” value in series [1] is on record as “much greater titres”. Moreover, the “median survival time, MST” value in series [2] is recorded as 19 days. Also, the “peripheral blood CD4^+ Tscm and T naïve cells following allogeneic HCT” value in series [3] is “controls expansion of CD4^+ Tscm cells while preserving CD4^+ T naïve cells”. For the same molecule, the “IFN-γ release over that observed with human IgG4PE isotype control” value in series [4] is “no effect”.

B2: 10A07: anti-hOX40L antibody; VH SEQ ID No:2, VL SEQ ID No:16; IgG4-PE heavy chain SEQ ID No:30, light chain SEQ ID No:32 (antibody)
heavy: EVQLVESGGVLVQPGGSLRLSCAASGFTFSSYIMTWVRQAPGKGLEWVSGISGSGGGTYYADSMKGRFTISRDNSKNTLYLQMNSLRVEDTAVYYCAKDRLGPITLVRGGYYYGMDVWGQGTTVTVSSASTKGPSVFPLAPCSRSTSESTAALGCLVKDYFPEPVTVSWNSGALTSGVHTFPAVLQSSGLYSLSSVVTVPSSSLGTKTYTCNVDHKPSNTKVDKRV[human IgG4 Fc with changes omitted here]
light: DIQMTQSPSSLSASVGDRVTITCRASQSISDYLNWYQQKPGKAPKFLIYAASSLQSGVPSRFSGSGSGTDFTLTVSSLQPEDFATYYCQQSYSTPRTFGQGTRVEIKRTVAAPSVFIFPPSDEQLKSGTASVVCLLNNFYPREAKVQWKVDNALQSGNSQESVTEQDSKDSTYSLSSTLTLSKADYEKHKVYACEVTHQGLSSPVTKSFNRGEC
modifications: 10A07 - Heavy Chain Amino Acid Sequence; 10A07 - Light Chain Amino Acid Sequence
For B2, the “Expression titres in stable Lonza pools” value in series [1] is on record as “very low titres”. In addition, the “IFN-γ release over that observed with human IgG4PE isotype control” value in series [4] was “no effect”. Besides, the “IFN-γ release compared to the isotype control” value in series [5] is “inhibited IFN-γ release”.
